Assay results: the supplement of paper PMC4604168 (melanoma cell lines)
The other results are listed elsewhere or left out. Repeats are few or missing, and single values can be far off.

Test system: WM1745
Assay: cell count relative to DMSO control; melanoma cells; higher = more viable cells
Settings: library dose: low library concentration; 72 h; first compound 0.4 µM
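Further: cell number obtained by counting DAPI-stained nuclei in high-throughput microscope images with image analysis software, screen run in 1,536-well plates.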

Row | SMILES | cell count
1 | Cn1sc(=O)n(Cc2ccccc2)c1=O + Cn1c(Nc2ccc(C(F)(F)F)cc2)nc2cc(Oc3ccnc(-c4ncc(C(F)(F)F)[nH]4)c3)ccc21 [CHIR265] (partner dose 0.08 µM) | 72.8%
2 | CCCCCCCCCCCCCCCCCCOP(=O)([O-])OC1CC[N+](C)(C)CC1 [Perifosine] + Clc1ccc(Nc2nnc(Cc3ccncc3)c3ccccc23)cc1 [vatalanib] (partner dose 2 µM) | 93.5%
3 | C[C@@H](N)c1ccc(C(=O)Nc2ccnc3[nH]ccc23)cc1 + Nc1cccc2c1CN(C1CCC(=O)NC1=O)C2=O [lenalidomide] (partner dose 1 µM) | 92.5%
4 | CCCCCCCCCCCCCCCCCCOP(=O)([O-])OC1CC[N+](C)(C)CC1 [Perifosine] + NC1(c2ccc(-c3nc4ccn5c(=O)[nH]nc5c4cc3-c3ccccc3)cc2)CCC1 [MK2206] (partner dose 0.4 µM) | 74.8%
5 | Cn1sc(=O)n(Cc2ccccc2)c1=O + NC(=O)c1ccc(N(C(N)=O)c2c(F)cccc2F)nc1-c1ccc(F)cc1F [VX702] (partner dose 0.4 µM) | 89.5%
6 | Cn1sc(=O)n(Cc2ccccc2)c1=O + CC(=O)c1c(C)c2cnc(Nc3ccc(N4CCNCC4)cn3)nc2n(C2CCCC2)c1=O [palbociclib] (partner dose 0.04 µM) | 111%
7 | Cn1sc(=O)n(Cc2ccccc2)c1=O + COc1ccc(-c2ccc3c(N4CCOCC4)nc(N4C[C@@H](C)O[C@@H](C)C4)nc3n2)cc1CO [KU0063794] (partner dose 0.02 µM) | 93.6%
8 | Cn1sc(=O)n(Cc2ccccc2)c1=O + O=C1NC(=O)/C(=C/c2ccc(-c3ccc(F)cc3O)o2)S1 [AS252424] (partner dose 1 µM) | 85.7%
9 | Cn1sc(=O)n(Cc2ccccc2)c1=O + COc1cc(Nc2ncc(F)c(Nc3ccc4c(n3)NC(=O)C(C)(C)O4)n2)cc(OC)c1OC [Tamatinib] (partner dose 0.4 µM) | 65.5%
10 | C[C@@H](N)c1ccc(C(=O)Nc2ccnc3[nH]ccc23)cc1 + Nc1nc(F)nc2c1ncn2[C@@H]1O[C@H](CO)[C@@H](O)[C@@H]1O [fludarabine] (partner dose 0.2 µM) | 81%
11 | Cn1sc(=O)n(Cc2ccccc2)c1=O + Nc1nc(F)nc2c1ncn2[C@@H]1O[C@H](CO)[C@@H](O)[C@@H]1O [fludarabine] (partner dose 0.2 µM) | 116%
12 | Cn1sc(=O)n(Cc2ccccc2)c1=O + c1cc(-c2cnn3cc(-c4ccc(OCCN5CCCCC5)cc4)cnc23)ccn1 [Dorsomorphin] (partner dose 0.4 µM) | 79.2%
13 | Cn1sc(=O)n(Cc2ccccc2)c1=O + C=CCn1c(=O)c2cnc(Nc3ccc(N4CCN(C)CC4)cc3)nc2n1-c1cccc(C(C)(C)O)n1 [MK1775] (partner dose 0.02 µM) | 79.9%
14 | Cn1sc(=O)n(Cc2ccccc2)c1=O + OCCn1cc(-c2cnc3nnn(Cc4ccc5ncccc5c4)c3n2)cn1 [PF04217903] (partner dose 1 µM) | 105%
15 | Cn1sc(=O)n(Cc2ccccc2)c1=O + Cn1c(=O)n(-c2ccc(C(C)(C)C#N)cc2)c2c3cc(-c4cnc5ccccc5c4)ccc3ncc21 [NVP-BEZ235] (partner dose 0.004 µM) | 97.3%
16 | Cn1sc(=O)n(Cc2ccccc2)c1=O + C#Cc1cccc(Nc2ncnc3cc(OCCOC)c(OCCOC)cc23)c1 [erlotinib] (partner dose 0.8 µM) | 81.3%
17 | Cn1sc(=O)n(Cc2ccccc2)c1=O + COC(=O)c1sccc1S(=O)(=O)Nc1ccc(Nc2ccccc2)cc1OC [GSK0660] (partner dose 1 µM) | 97.4%
18 | C[C@@H](N)c1ccc(C(=O)Nc2ccnc3[nH]ccc23)cc1 + COc1ccc(Cl)c(Nc2nc3ccccc3nc2NS(=O)(=O)c2cccc(NC(=O)C(C)(C)N)c2)c1 [XL147] (partner dose 0.8 µM) | 60.4%
19 | C[C@@H](N)c1ccc(C(=O)Nc2ccnc3[nH]ccc23)cc1 + CCc1ccc(CCOc2ccc(CC3SC(=O)NC3=O)cc2)nc1 [pioglitazone] (partner dose 2 µM) | 80.3%
20 | CCCCCCCCCCCCCCCCCCOP(=O)([O-])OC1CC[N+](C)(C)CC1 [Perifosine] + COc1ccc(C2=N[C@@H](c3ccc(Cl)cc3)[C@@H](c3ccc(Cl)cc3)N2C(=O)N2CCNC(=O)C2)c(OC(C)C)c1 [Nutlin-3] (partner dose 0.1 µM) | 115%

Row | SMILES | cell count
21 | CCCCCCCCCCCCCCCCCCOP(=O)([O-])OC1CC[N+](C)(C)CC1 [Perifosine] + CNC(=O)c1cc(Oc2ccc(NC(=O)Nc3ccc(Cl)c(C(F)(F)F)c3)cc2)ccn1 [sorafenib] (partner dose 0.4 µM) | 90.7%
22 | C[C@@H](N)c1ccc(C(=O)Nc2ccnc3[nH]ccc23)cc1 + COc1cc(N2CCC(N3CCN(C)CC3)CC2)ccc1Nc1ncc(Cl)c(Nc2ccccc2S(=O)(=O)C(C)C)n1 [NVP-TAE684] (partner dose 0.08 µM) | 60.5%
23 | Cn1sc(=O)n(Cc2ccccc2)c1=O + Nc1cccc2c1CN(C1CCC(=O)NC1=O)C2=O [lenalidomide] (partner dose 1 µM) | 107%
24 | CCCCCCCCCCCCCCCCCCOP(=O)([O-])OC1CC[N+](C)(C)CC1 [Perifosine] + O=C1NC(=O)/C(=C/c2ccc(-c3ccc(F)cc3O)o2)S1 [AS252424] (partner dose 1 µM) | 83.8%
25 | Cn1sc(=O)n(Cc2ccccc2)c1=O + O=C(Nc1ccccc1)c1cc([N+](=O)[O-])ccc1Cl [GW9662] (partner dose 2 µM) | 98.7%
26 | Cn1sc(=O)n(Cc2ccccc2)c1=O + Clc1ccc(Nc2nnc(Cc3ccncc3)c3ccccc23)cc1 [vatalanib] (partner dose 2 µM) | 98.9%
27 | C[C@@H](N)c1ccc(C(=O)Nc2ccnc3[nH]ccc23)cc1 + C[C@@H](Oc1cc(-c2cnn(C3CCNCC3)c2)cnc1N)c1c(Cl)ccc(F)c1Cl [Crizotinib] (partner dose 0.2 µM) | 83.3%
28 | C[C@@H](N)c1ccc(C(=O)Nc2ccnc3[nH]ccc23)cc1 + CC(C)CCN1c2nc(Nc3cc(F)c(O)c(F)c3)ncc2N(C)C(=O)C1C [BID1870] (partner dose 0.2 µM) | 89%
29 | C[C@@H](N)c1ccc(C(=O)Nc2ccnc3[nH]ccc23)cc1 + C[C@]1(c2nc3c(C(N)=O)cccc3[nH]2)CCCN1 [Veliparib] (partner dose 1.4 µM) | 84.5%
30 | Cn1sc(=O)n(Cc2ccccc2)c1=O + COc1ccc(C2=N[C@@H](c3ccc(Cl)cc3)[C@@H](c3ccc(Cl)cc3)N2C(=O)N2CCNC(=O)C2)c(OC(C)C)c1 [Nutlin-3] (partner dose 0.1 µM) | 79.6%
31 | CCCCCCCCCCCCCCCCCCOP(=O)([O-])OC1CC[N+](C)(C)CC1 [Perifosine] + CCCCCCCCCCCC1=C(O)C(=O)C=C(O)C1=O [Embelin] (partner dose 1.2 µM) | 90.2%
32 | CCCCCCCCCCCCCCCCCCOP(=O)([O-])OC1CC[N+](C)(C)CC1 [Perifosine] + COC(=O)c1sccc1S(=O)(=O)Nc1ccc(Nc2ccccc2)cc1OC [GSK0660] (partner dose 1 µM) | 96.2%
33 | C[C@@H](N)c1ccc(C(=O)Nc2ccnc3[nH]ccc23)cc1 + Cc1cc(Nc2cc(N3CCN(C)CC3)nc(/C=C/c3ccccc3)n2)n[nH]1 [ENMD2076] (partner dose 0.04 µM) | 61.2%
34 | CCCCCCCCCCCCCCCCCCOP(=O)([O-])OC1CC[N+](C)(C)CC1 [Perifosine] + COCC[n+]1c2c(n(Cc3cnccn3)c1C)C(=O)c1ccccc1C2=O [YM155] (partner dose 0.0004 µM) | 113%
35 | C[C@@H](N)c1ccc(C(=O)Nc2ccnc3[nH]ccc23)cc1 + O=C(Nc1cccc(Cl)c1)Nc1ncc(CCNc2ncnc3ccsc23)s1 [SNS314] (partner dose 0.0008 µM) | 77.9%
36 | CCCCCCCCCCCCCCCCCCOP(=O)([O-])OC1CC[N+](C)(C)CC1 [Perifosine] + C=CCn1c(=O)c2cnc(Nc3ccc(N4CCN(C)CC4)cc3)nc2n1-c1cccc(C(C)(C)O)n1 [MK1775] (partner dose 0.02 µM) | 90.3%
37 | CCCCCCCCCCCCCCCCCCOP(=O)([O-])OC1CC[N+](C)(C)CC1 [Perifosine] + C=C(c1ccc(C(=O)O)cc1)c1cc2c(cc1C)C(C)(C)CCC2(C)C [Bexarotene] (partner dose 2 µM) | 78.3%
38 | CCCCCCCCCCCCCCCCCCOP(=O)([O-])OC1CC[N+](C)(C)CC1 [Perifosine] + Nc1ncn([C@H]2C[C@H](O)[C@@H](CO)O2)c(=O)n1 [decitabine] (partner dose 0.1 µM) | 97%
39 | C[C@@H](N)c1ccc(C(=O)Nc2ccnc3[nH]ccc23)cc1 + C[C@]1(O)C[C@@H](c2nc(-c3ccc4ccc(-c5ccccc5)nc4c3)c3c(N)nccn32)C1 [OSI906] (partner dose 0.4 µM) | 58.9%
